According to the supplement of paper PMC10126150:
Values marked as one replicate rest on one cluster of the flow cell; about a third of the high ones do not repeat.

These sequences were tested on ATP (assay: switch fluorescence ratio, 500 uM ATP over buffer (Cy3 cluster intensity, sum of 5 cycles each) (fold (ratio)); higher = stronger signal-on switching upon ATP binding; sequences stand for … in TCGTCGGCAGCGTCAGATGTGTATAAGAGACAGTTTTTTTTTTTTTTTTTTTTTTTTT…TC). Conditions: aptamer strand: ATP DNA aptamer (quencher-CACCTGGGGGAGTATTGCGGAGGAAGG + anchor), 100 nM annealed; ATP concentration: 500 uM; one replicate.
Method in brief: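 Switching-strand clusters labelled with Cy3 on a modified Illumina MiSeq flow-cell were annealed to 100 nM quencher-labelled ATP aptamer, imaged in selection buffer, and re-imaged after 15 min with 500 uM ATP at 22 °C. This was done over five cycles with NaOH stripping and re-annealing in between. The fluorescence ratio is summed target-cycle over summed buffer-cycle Cy3 intensity per cluster, averaged per switch-domain sequence, excluding clusters outside 100-1000 RFU.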
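Further: ATP exposure 15 min at 22 °C before imaging.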

Row | Sequence | switch fluorescence ratio
1 | AGGTGGAGGC | 0.98
2 | AGGTGGCAGT | 0.992
3 | AGGTGTCATC | 1.01
4 | AGGTGTCTGT | 0.983
5 | AGGTTATTGG | 1.02
6 | AGGTTCAGCT | 1.03
7 | AGGTTCAGTA | 1.03
8 | AGGTTCTTAT | 0.975
9 | AGGTTGAGTG | 0.992
10 | AGGTTGGACC | 0.935
11 | AGGTTTAAGA | 0.991
12 | AGGTTTCGG | 1.04
13 | AGTAAACTTG | 1.1
14 | AGTAACGAGT | 0.922
15 | AGTAAGAACT | 1.05
16 | AGTAAGAGGA | 1
17 | AGTAAGCGCG | 0.913
18 | AGTAAGGGTG | 1.05
19 | AGTAATAGTA | 1.56
20 | AGTAATTTCG | 0.961
21 | AGTACAAGGA | 1.01
22 | AGTACCAGGG | 1.15
23 | AGTACCGCG | 1.02
24 | AGTACGATTT | 0.991
25 | AGTACGGTTG | 0.948
26 | AGTACGTG | 0.987

Row | Sequence | switch fluorescence ratio
27 | AGTACTAGAA | 1.03
28 | AGTACTGAGT | 1.1
29 | AGTAGAAAAG | 0.999
30 | AGTAGACACT | 1.04
31 | AGTAGACTCG | 0.99
32 | AGTAGACTT | 1
33 | AGTAGAGAGA | 0.973
34 | AGTAGATAGC | 0.998
35 | AGTAGCTCCA | 1.03
36 | AGTAGGCGAC | 1.02
37 | AGTAGGTTCG | 0.989
38 | AGTAGTATCG | 0.974
39 | AGTAGTCAAG | 0.977
40 | AGTAGTTCGC | 0.982
41 | AGTAGTTGTA | 1
42 | AGTATAACCT | 1.65
43 | AGTATATATG | 1.01
44 | AGTATCAGGC | 0.958
45 | AGTATCATAG | 0.965
46 | AGTATCGTCA | 0.968
47 | AGTATGCTTC | 0.975
48 | AGTATTAACG | 1.02
49 | AGTATTAATA | 1.01
50 | AGTATTACGT | 0.987
51 | AGTATTACTC | 1.11
52 | AGTATTAGAC | 0.959

Row | Sequence | switch fluorescence ratio
53 | AGTCAACCTG | 1
54 | AGTCAACTTC | 0.987
55 | AGTCAATGTC | 1.1
56 | AGTCAATTAT | 1.05
57 | AGTCACAACT | 1.02
58 | AGTCACCTGT | 1.18
59 | AGTCACGCGT | 1.03
60 | AGTCAGAAGG | 0.982
61 | AGTCAGCCAA | 1.02
62 | AGTCAGGACT | 1.01
63 | AGTCAGTTCG | 0.988
64 | AGTCATTAGA | 0.999
65 | AGTCCAAGTA | 1.02
66 | AGTCCATTGT | 0.983
67 | AGTCCGGCTT | 1.06
68 | AGTCCTGTCA | 1
69 | AGTCGAATTT | 0.966
70 | AGTCGACAGA | 1.06
71 | AGTCGCAAGG | 1.04
72 | AGTCGCAGTA | 1.04
73 | AGTCGCCCT | 0.988
74 | AGTCGCGACG | 0.928
75 | AGTCGCGGCG | 1.02
76 | AGTCGGGCA | 1.02
77 | AGTCGTTGGC | 1.01
78 | AGTCTAAGAA | 0.975

Row | Sequence | switch fluorescence ratio
79 | AGTCTAGTCC | 1.04
80 | AGTCTATGAT | 0.987
81 | AGTCTCATCA | 0.985
82 | AGTCTCGTTT | 0.987
83 | AGTCTGAACA | 0.981
84 | AGTCTGGCAG | 1.01
85 | AGTCTGTGTC | 0.978
86 | AGTCTTGCGC | 1.02
87 | AGTGAACCGT | 0.983
88 | AGTGAAGATT | 0.994
89 | AGTGACAGGA | 0.998
90 | AGTGACTGT | 0.98
91 | AGTGAGGGCA | 1.09
92 | AGTGAGTACC | 1.01
93 | AGTGAGTTGA | 1.01
94 | AGTGAGTTTA | 1.04
95 | AGTGATACGC | 1.08
96 | AGTGATCCCG | 1.02
97 | AGTGATGTGC | 0.983
98 | AGTGATTTTG | 1.02
99 | AGTGCAATTC | 3.56
100 | AGTGCACGGT | 1.01
101 | AGTGCAGAGT | 1
102 | AGTGCAGCA | 1.08
103 | AGTGCCTCGT | 0.95
104 | AGTGCGTCAA | 1.04

Row | Sequence | switch fluorescence ratio
105 | AGTGGACGG | 0.965
106 | AGTGGATATC | 0.916
107 | AGTGGCCGT | 0.959
108 | AGTGGCGAAG | 0.978
109 | AGTGGCTGGT | 1.12
110 | AGTGGGCCGT | 0.994
111 | AGTGGGCTAG | 1.01
112 | AGTGGGGTTG | 0.941
113 | AGTGGGTGAG | 0.971
114 | AGTGTACGCA | 1.1
115 | AGTGTAGACT | 0.96
116 | AGTGTCGTTC | 0.979
117 | AGTGTTAAAT | 0.981
118 | AGTGTTAAGC | 0.978
119 | AGTTAACTGG | 1.05
120 | AGTTAATGT | 0.983
121 | AGTTACGTTG | 1.05
122 | AGTTACTCAT | 0.988
123 | AGTTAGATGA | 0.976
124 | AGTTATATGC | 0.971
125 | AGTTATGCTA | 1.01
126 | AGTTATTGTC | 1.04
127 | AGTTCAGAGC | 0.954
128 | AGTTCGCCC | 1.1
129 | AGTTCTACG | 0.978
130 | AGTTCTGAGT | 1

Row | Sequence | switch fluorescence ratio
131 | AGTTGAACAG | 0.977
132 | AGTTGAGCG | 0.961
133 | AGTTGATTGC | 1.03
134 | AGTTGCACCC | 0.984
135 | AGTTGCCTTG | 0.982
136 | AGTTGGAC | 1.04
137 | AGTTGTACAG | 1
138 | AGTTGTCAAT | 1
139 | AGTTGTCCCA | 1.04
140 | AGTTGTGGCG | 1.11
141 | AGTTGTGTTC | 0.934
142 | AGTTGTTTAT | 1
143 | AGTTTACACG | 0.97
144 | AGTTTATAAG | 0.991
145 | AGTTTATTCA | 0.938
146 | AGTTTCTCCC | 1.13
147 | AGTTTGCAC | 1.02
148 | AGTTTGTATT | 0.978
149 | AGTTTTAAAT | 0.997
150 | AGTTTTTTAA | 0.979
151 | ATAAAAAAAC | 1.02
152 | ATAAAACCAG | 0.986
153 | ATAAACCACC | 1.28
154 | ATAAAGCTAT | 1.01
155 | ATAAAGGAGT | 0.961
156 | ATAAAGTCCA | 1.01

Row | Sequence | switch fluorescence ratio
157 | ATAAATACTA | 0.999
158 | ATAAATGCGC | 1.01
159 | ATAACAGCGA | 1.03
160 | ATAACAGGTG | 0.928
161 | ATAACAGTTG | 1.01
162 | ATAACCTCGT | 1.01
163 | ATAACGACGC | 2.37
164 | ATAACGCGTC | 1.04
165 | ATAACGCTAA | 1.23
166 | ATAACGGGT | 0.957
167 | ATAAGAGAGT | 1.02
168 | ATAAGAGGC | 1
169 | ATAAGAGGCT | 0.974
170 | ATAAGCACGA | 1.18
171 | ATAAGCGCGA | 0.991
172 | ATAAGCTCTA | 1.02
173 | ATAAGCTGCT | 1.02
174 | ATAAGCTGTG | 0.967
175 | ATAAGGCGGA | 1.02
176 | ATAAGGGCC | 0.988
177 | ATAAGGTCCG | 0.999
178 | ATAAGGTTAC | 1
179 | ATAAGTGCTA | 0.945
180 | ATAAGTTAAT | 1
181 | ATAAGTTATA | 0.979
182 | ATAAGTTGCA | 1.02

Row | Sequence | switch fluorescence ratio
183 | ATAATAAGTC | 1.07
184 | ATAATACGCT | 1.09
185 | ATAATAGTTC | 1.05
186 | ATAATCAATG | 0.984
187 | ATAATCCTG | 1.01
188 | ATAATCTCTG | 1.01
189 | ATAATCTGTC | 0.942
190 | ATAATTGATA | 1
191 | ATACAAGTCC | 1.01
192 | ATACACAGA | 1.06
193 | ATACACCTTG | 0.997
194 | ATACAGATCT | 1.02
195 | ATACATTGTA | 0.992
196 | ATACCACACA | 1.4
197 | ATACCACTCC | 1.25
198 | ATACCAGCAC | 1.25
199 | ATACCGCTTA | 1.28
200 | ATACCGGGTA | 1.04
201 | ATACGCTCCG | 1.05
